{
  "source": "paper PMC4336329",
  "about": "(PLoS ONE, 2015)",
  "note": "In all, about 310,000 compounds went through this assay and about 2,200 (0.71%) showed an effect of 50% or more. Effects have a minus sign here. This is one part of the list.",
  "data": [
    {"target": "human ether-à-go-go-related gene (hERG) potassium channel (human, UniProt Q12809)", "sequence (Q12809 whole entry, looked up)": "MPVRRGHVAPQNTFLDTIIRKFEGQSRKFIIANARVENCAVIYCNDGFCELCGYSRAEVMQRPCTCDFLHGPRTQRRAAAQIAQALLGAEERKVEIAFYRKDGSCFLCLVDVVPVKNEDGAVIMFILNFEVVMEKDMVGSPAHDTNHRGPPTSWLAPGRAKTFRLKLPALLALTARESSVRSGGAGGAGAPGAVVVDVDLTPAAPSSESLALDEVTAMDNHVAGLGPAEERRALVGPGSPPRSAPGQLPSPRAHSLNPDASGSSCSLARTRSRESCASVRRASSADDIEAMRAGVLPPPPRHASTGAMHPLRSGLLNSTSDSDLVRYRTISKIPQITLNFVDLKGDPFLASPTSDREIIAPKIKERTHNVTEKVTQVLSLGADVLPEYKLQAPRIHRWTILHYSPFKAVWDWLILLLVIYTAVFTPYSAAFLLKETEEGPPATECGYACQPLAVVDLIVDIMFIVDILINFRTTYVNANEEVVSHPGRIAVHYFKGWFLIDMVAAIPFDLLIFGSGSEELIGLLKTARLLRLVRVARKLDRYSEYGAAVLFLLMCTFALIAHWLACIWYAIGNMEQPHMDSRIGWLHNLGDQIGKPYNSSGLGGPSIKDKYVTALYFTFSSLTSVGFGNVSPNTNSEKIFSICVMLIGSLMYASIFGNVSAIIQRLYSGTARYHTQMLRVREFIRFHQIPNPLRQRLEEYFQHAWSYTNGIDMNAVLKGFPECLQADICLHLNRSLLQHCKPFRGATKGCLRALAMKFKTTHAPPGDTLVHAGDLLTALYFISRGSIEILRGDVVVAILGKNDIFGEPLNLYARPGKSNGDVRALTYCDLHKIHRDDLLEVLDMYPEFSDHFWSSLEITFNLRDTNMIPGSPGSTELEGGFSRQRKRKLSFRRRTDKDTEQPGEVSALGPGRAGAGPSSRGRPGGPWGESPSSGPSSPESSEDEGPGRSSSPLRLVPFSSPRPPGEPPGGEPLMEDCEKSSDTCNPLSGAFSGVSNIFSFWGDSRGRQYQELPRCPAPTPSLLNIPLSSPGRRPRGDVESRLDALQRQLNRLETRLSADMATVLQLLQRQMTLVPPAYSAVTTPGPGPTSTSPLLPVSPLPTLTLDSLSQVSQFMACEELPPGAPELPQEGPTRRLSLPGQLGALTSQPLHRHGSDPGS", "experiment": "primary screen, population patch clamp on CHO cells stably expressing hERG", "units": {"hERG current change (%, negative = inhibition) at 1uM": "%"}, "values": [
      {"smiles": "CSc1nc(N)n2nc(C(C)(C)C)cc2n1", "hERG current change (%, negative = inhibition) at 1uM": 9.83},
      {"smiles": "CC(C)(C)c1ccc(-c2noc(-c3ccno3)n2)cc1", "hERG current change (%, negative = inhibition) at 1uM": 15.4},
      {"smiles": "Cc1nonc1NC(=O)CSc1nc2ccccc2[nH]1", "hERG current change (%, negative = inhibition) at 1uM": 2.55},
      {"smiles": "COc1cccc(CN(C)C(=O)CNC(=O)c2ccc3c(c2)OCO3)c1OC", "hERG current change (%, negative = inhibition) at 1uM": 20.1},
      {"smiles": "CCCC(C(=O)NC(C)(C)C)N(C(=O)c1snc(C(N)=O)c1N)c1ccc2c(c1)OCCO2", "note": "(stereo not drawn)", "hERG current change (%, negative = inhibition) at 1uM": 7.46},
      {"smiles": "O=C(c1ccc(F)cc1)N1CCC(n2nnc3ccccc32)CC1", "hERG current change (%, negative = inhibition) at 1uM": 0.577},
      {"smiles": "Cc1nc(-c2ccc(F)cc2)c(CC(=O)N2CCN(S(=O)(=O)c3cccc(Cl)c3)CC2)s1", "hERG current change (%, negative = inhibition) at 1uM": 7.19},
      {"smiles": "Cc1ccc(N(CC(=O)Nc2cccc(C)c2)S(=O)(=O)c2cccc3nonc23)cc1", "hERG current change (%, negative = inhibition) at 1uM": 11.2},
      {"smiles": "COc1ccc(CCNC(=O)Cn2c(=O)n(CC3CCCO3)c(=O)c3ccccc32)cc1OC", "note": "(stereo not drawn)", "hERG current change (%, negative = inhibition) at 1uM": 3.58},
      {"smiles": "S=C(Nc1ccccc1Cl)N1CCCCCC1", "hERG current change (%, negative = inhibition) at 1uM": 6.54},
      {"smiles": "Cc1cc(Cn2nc(-c3ccccc3)cc2C(=O)NCc2cccc(Br)c2)on1", "hERG current change (%, negative = inhibition) at 1uM": 6.53},
      {"smiles": "CCC1CCCCN1C(=O)CSc1nnc(CNC(=O)c2cc(OC)c(OC)c(OC)c2)o1", "note": "(stereo not drawn)", "hERG current change (%, negative = inhibition) at 1uM": 10.6},
      {"smiles": "Cc1ccc(NC(=O)Cn2ncc(Cl)c(Cl)c2=O)cc1S(=O)(=O)N1CCCCC1", "hERG current change (%, negative = inhibition) at 1uM": 2.28},
      {"smiles": "CC(=O)c1ccc(S(=O)(=O)NC2CC(=O)N(c3ccc(C)cc3)C2)cc1", "note": "(stereo not drawn)", "hERG current change (%, negative = inhibition) at 1uM": 8.75},
      {"smiles": "Cc1cc(NC(=O)c2ccc(Cl)cc2Cl)no1", "hERG current change (%, negative = inhibition) at 1uM": 9.22},
      {"smiles": "COc1ccc(C2(CNS(=O)(=O)c3ccc(C)cc3)CCOCC2)cc1", "hERG current change (%, negative = inhibition) at 1uM": 12.4},
      {"smiles": "O=c1c2cn[nH]c2nc(SCc2cc(=O)n3cc(Br)ccc3n2)n1-c1ccc(Br)cc1", "hERG current change (%, negative = inhibition) at 1uM": 7.81},
      {"smiles": "O=C(CCCn1c(=O)[nH]c2ccsc2c1=O)NC1CCCCC1", "hERG current change (%, negative = inhibition) at 1uM": 16.8},
      {"smiles": "CC(C)OCCCNC(=O)C(C)Oc1ccccc1", "note": "(stereo not drawn)", "hERG current change (%, negative = inhibition) at 1uM": -1.34},
      {"smiles": "Cc1ccn2cc(CNC(=O)c3ccc(Br)o3)nc2c1", "hERG current change (%, negative = inhibition) at 1uM": -15.3},
      {"smiles": "Cc1ccc(S(=O)(=O)/N=C(/Nc2c(C)n(C)n(-c3ccccc3)c2=O)c2ccccc2)cc1", "hERG current change (%, negative = inhibition) at 1uM": -0.737},
      {"smiles": "CC(C)Nc1nc2nonc2nc1Nc1ccccc1", "hERG current change (%, negative = inhibition) at 1uM": 10.9},
      {"smiles": "COc1cccc(/C=N/NC(=O)Cn2cnc3c2c(=O)n(C)c(=O)n3C)c1", "hERG current change (%, negative = inhibition) at 1uM": 9},
      {"smiles": "CCN(Cc1ccncc1)C(=O)Cc1cccs1", "hERG current change (%, negative = inhibition) at 1uM": 4.08},
      {"smiles": "Cc1cc(C)cc(NC(=O)C(c2ccccc2)N2CCCC2)c1", "note": "(stereo not drawn)", "hERG current change (%, negative = inhibition) at 1uM": 12.6},
      {"smiles": "COc1cc(-c2[nH]ncc2CN2CCc3sccc3C2)cc(OC)c1OC", "hERG current change (%, negative = inhibition) at 1uM": 6.26},
      {"smiles": "O=C(CN1CCN(c2ccc(F)cc2)CC1)c1ccc2c(c1)OCO2", "hERG current change (%, negative = inhibition) at 1uM": -0.884},
      {"smiles": "CSc1c(-c2ccccc2)nc2ccc(Cl)cc2c1C(=O)O", "hERG current change (%, negative = inhibition) at 1uM": 3.52},
      {"smiles": "CCS(=O)(=O)c1ccc2c(c1)NC(=O)C(CCO)O2", "note": "(stereo not drawn)", "hERG current change (%, negative = inhibition) at 1uM": 7.07},
      {"smiles": "O=C(CNC(=O)c1ccccc1F)NC1=NCCS1", "hERG current change (%, negative = inhibition) at 1uM": 31.6},
      {"smiles": "CC(=O)c1ccc(NC(=O)CSc2nnc(-c3ccco3)o2)cc1", "hERG current change (%, negative = inhibition) at 1uM": -5.71},
      {"smiles": "Cc1c(Cl)cccc1NC(=S)N(CCCN1CCOCC1)Cc1ccco1", "hERG current change (%, negative = inhibition) at 1uM": -17.3},
      {"smiles": "COc1ccc(/C(C)=N/NC(=O)CNC(=O)c2cccs2)cc1OC", "hERG current change (%, negative = inhibition) at 1uM": 2.16},
      {"smiles": "C=CCn1c(SCC(=O)Nc2ccc(O)cc2)nc2sc(CC)cc2c1=O", "hERG current change (%, negative = inhibition) at 1uM": -17.3},
      {"smiles": "CC(C)N(C(=S)Nc1cccnc1)c1ccccc1", "hERG current change (%, negative = inhibition) at 1uM": 12.4},
      {"smiles": "CCCCNC(=O)C1CCCN1S(=O)(=O)c1cccc2nsnc12", "note": "(stereo not drawn)", "hERG current change (%, negative = inhibition) at 1uM": 4.06},
      {"smiles": "CCCCCCSc1nc2c(c(=O)[nH]c(=O)n2C)n1C", "hERG current change (%, negative = inhibition) at 1uM": 18.1},
      {"smiles": "COc1ccc(CO[C@@H]2O[C@H](CO)[C@@H](O)[C@H](O)[C@H]2NC(C)=O)cc1OC", "hERG current change (%, negative = inhibition) at 1uM": 14.1},
      {"smiles": "CCNC(=O)CCSc1nnc(-c2ccco2)o1", "hERG current change (%, negative = inhibition) at 1uM": 7.56},
      {"smiles": "COc1cc2ccccc2cc1C(=O)Nc1ccc2oc(=O)ccc2c1", "hERG current change (%, negative = inhibition) at 1uM": 10.5},
      {"smiles": "CCOC(=O)C1=C(C)OC(N)=C(C#N)C1c1cc(Cl)c(OCC(N)=O)c(OC)c1", "note": "(stereo not drawn)", "hERG current change (%, negative = inhibition) at 1uM": 1.08},
      {"smiles": "CCC(OC(=O)CC1Sc2ccccc2NC1=O)C(=O)NCC1CCCO1", "note": "(stereo not drawn)", "hERG current change (%, negative = inhibition) at 1uM": 14.3},
      {"smiles": "Cc1ccc(S(=O)(=O)Nc2nc3cc(C)c(C)cc3[nH]2)cc1", "hERG current change (%, negative = inhibition) at 1uM": 11.2},
      {"smiles": "CC12CCC(C(=O)N(CC(O)CN3CCCCCC3)C1=O)C2(C)C.Cl", "note": "(stereo not drawn)", "hERG current change (%, negative = inhibition) at 1uM": 9.02},
      {"smiles": "CC(=O)Oc1ccc(/C=C2/C(=O)N(c3ccccc3)N=C2C)cc1", "hERG current change (%, negative = inhibition) at 1uM": 5.44},
      {"smiles": "CCC1(CC)NC(=O)N(CC(=O)OCC(=O)Nc2cc(C)ccc2C)C1=O", "hERG current change (%, negative = inhibition) at 1uM": 17.3},
      {"smiles": "CCN(Cc1ccccc1)c1ccc(/C=N/NC(=O)c2cccc(S(=O)(=O)N3CCOCC3)c2)cc1", "hERG current change (%, negative = inhibition) at 1uM": 12.9},
      {"smiles": "CCc1nnc(NC(=O)CC23CC4CC(CC(Br)(C4)C2)C3)s1", "hERG current change (%, negative = inhibition) at 1uM": 14.2},
      {"smiles": "OCCN(Cc1ccccc1)CC1CCCCC1", "hERG current change (%, negative = inhibition) at 1uM": 4.24},
      {"smiles": "CCOc1ccc(NC(=O)Cn2nc(C(N)=O)c3ccccc3c2=O)cc1S(=O)(=O)N1CCCC1", "hERG current change (%, negative = inhibition) at 1uM": 4.75},
      {"smiles": "CCOc1ncc(S(=O)(=O)N2CCN(CC)CC2)cc1C(=O)O", "hERG current change (%, negative = inhibition) at 1uM": 15.2},
      {"smiles": "COCCCNC(=O)c1cn(Cc2c(F)cccc2Cl)nn1", "hERG current change (%, negative = inhibition) at 1uM": -0.167},
      {"smiles": "O=[N+]([O-])c1ccccc1/C=N/Nc1nnc(-c2ccccc2)c(-c2ccccc2)n1", "hERG current change (%, negative = inhibition) at 1uM": 12.8},
      {"smiles": "O=C(COC(=O)/C=C/c1ccc(C(F)(F)F)cc1)NC1CCS(=O)(=O)C1", "note": "(stereo not drawn)", "hERG current change (%, negative = inhibition) at 1uM": 20},
      {"smiles": "CC1CCCCC1NC(=O)Cn1c(=O)oc2cc(S(=O)(=O)N3CCCC3)ccc21", "note": "(stereo not drawn)", "hERG current change (%, negative = inhibition) at 1uM": 16.9},
      {"smiles": "Cn1cnnc1SCC(=O)Nc1ncc(C(F)(F)F)cc1Cl", "hERG current change (%, negative = inhibition) at 1uM": 10.8},
      {"smiles": "O=C(CN1C(=O)COc2ccccc21)NCc1ccc(C(=O)O)cc1", "hERG current change (%, negative = inhibition) at 1uM": 9.44}
    ]}
  ]
}
